{
  "source": "PubChem BioAssay AID1508642",
  "about": "(National Center for Advancing Translational Sciences (NCATS), 2021)",
  "note": "The campaign covered roughly 43,000 compounds. About 200 (0.47%) were called active. About 12% were inconclusive and are not listed. Calls follow the shape of the dose curve; as a rule, active = well fitted cell-killing curve with a large enough effect; inconclusive = small, poorly fitted or top-dose-only effect, or effect the other way; inactive = flat fitted curve, though single readings scatter. Some of the results follow. % is scaled to controls: 0 for no effect and ±100 for the full control effect.",
  "data": [
    {"test": "Cell viability qHTS assay in S16 Pmp22-F2sN cells; also: nearly all actives have a fitted effect of over 65% in size", "conditions": "S16 Pmp22-F2sN Schwann cells viability, CellTiter-Glo, 24 h; series mostly up to 57.5 µM; activity change, negative = cytotoxicity: at the top concentration", "summary_of_the_method": "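S16 Pmp22-F2sN Schwann cells (500-1,000/well) in phenol-red-free DMEM with 10% FBS received 23 nL compound by pin tool for 24 h at 37 °C. Viability was then read as CellTiter-Glo luminescence after 15 min at room temperature.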", "values": [
      {"smiles": "Cc1ccc(C)c(CN2C(=O)c3ccccc3S(=O)c3ccc(C(=O)N4CCC(C)CC4)cc32)c1", "note": "(stereo unspecified)", "activity change, negative = cytotoxicity": "inactive: 11.5%"},
      {"smiles": "COc1ccc(CNc2oc(-c3ccc(COc4ccc(Cl)cc4)o3)nc2C#N)cc1", "activity change, negative = cytotoxicity": "inactive: 3.57%"},
      {"smiles": "CCOC(=O)c1cccc(NC(=O)c2cc(S(=O)(=O)N3CCCCCC3)cn2C)c1", "activity change, negative = cytotoxicity": "inactive: -7.86%"},
      {"smiles": "COc1cccc(CNC(=O)CNS(=O)(=O)c2ccc3nc(C)sc3c2)c1", "activity change, negative = cytotoxicity": "inactive: 1.84%"},
      {"smiles": "COc1cc(NC(=O)CSc2nc3ccccc3nc2Cc2ccccc2OC)cc(OC)c1", "activity change, negative = cytotoxicity": "inactive: -8.97%"},
      {"smiles": "Cc1nn2c(C)c(C(=O)N3CCN(c4ccccc4)CC3)cnc2c1-c1ccccc1", "activity change, negative = cytotoxicity": "inactive: -0.213%"},
      {"smiles": "Cc1ccc(CCNC(=O)c2cc3c(=O)oc4ccccc4c3s2)cc1", "activity change, negative = cytotoxicity": "inactive: -5.55%"},
      {"smiles": "COc1ccccc1OCCn1c(COc2cc(C)ccc2C)nc2ccccc21", "activity change, negative = cytotoxicity": "inactive: 12.7%"},
      {"smiles": "CCN(CC)S(=O)(=O)c1nnc(NC(=O)c2ccccc2Cl)s1", "activity change, negative = cytotoxicity": "inactive: -8.57%"},
      {"smiles": "CC(C)CNc1nc(NC(C)(C)C)nc(Oc2ccc(=O)n(-c3ccccc3)n2)n1", "activity change, negative = cytotoxicity": "inactive: -6.42%"},
      {"smiles": "COc1cc(OC)cc(C(=O)Nc2ccc3oc(-c4ccccc4C)nc3c2)c1", "activity change, negative = cytotoxicity": "inactive: 1.77%"},
      {"smiles": "CCC(=O)Nc1ccc(C)cc1-c1nc2ccccc2n(CC(=O)Nc2ccccc2Cl)c1=O", "activity change, negative = cytotoxicity": "inactive: 3.79%"},
      {"smiles": "COc1ccc(NC(=O)Cn2c(=O)n(CC3CCCO3)c(=O)c3ccccc32)c(OC)c1", "note": "(stereo unspecified)", "activity change, negative = cytotoxicity": "inactive: 8.4%"},
      {"smiles": "COc1cc(C2c3c(oc4ccc(F)cc4c3=O)C(=O)N2c2nc(C)c(C)s2)cc(OC)c1OC", "note": "(stereo unspecified)", "activity change, negative = cytotoxicity": "inactive: -9.85%"},
      {"smiles": "COc1ccc(C)cc1NC(=O)COCc1cc(-c2cccs2)on1", "activity change, negative = cytotoxicity": "inactive: -3.12%"},
      {"smiles": "CCOc1ccc(NC(=O)CSc2nc3c(c(=O)[nH]2)CCCC3)cc1", "activity change, negative = cytotoxicity": "inactive: -7.05%"},
      {"smiles": "COc1ccc(CCNC(=O)CCCn2c(=O)c3ccccc3n(Cc3ccc(C)cc3)c2=O)cc1OC", "activity change, negative = cytotoxicity": "inactive: 15.9%"},
      {"smiles": "Cc1ccc2ncc(C(=O)NCCc3ccc(S(N)(=O)=O)cc3)c(=O)n2c1", "activity change, negative = cytotoxicity": "inactive: -1.33%"},
      {"smiles": "COc1ccc2nc(N(Cc3cccnc3)C(=O)C3COc4ccccc4O3)sc2c1", "note": "(stereo unspecified)", "activity change, negative = cytotoxicity": "inactive: 3.97%"},
      {"smiles": "CCCN(C(=O)c1cn(C)c(=O)c2ccccc12)c1ccccc1C", "activity change, negative = cytotoxicity": "inactive: 1.94%"},
      {"smiles": "CCOc1ccccc1C(=O)N(Cc1cc(OC)c(OC)c(OC)c1)C1CCS(=O)(=O)C1", "note": "(stereo unspecified)", "activity change, negative = cytotoxicity": "inactive: 1.92%"},
      {"smiles": "O=C(CN1CCSc2ccccc21)NCc1ccccc1F", "activity change, negative = cytotoxicity": "inactive: 4.85%"},
      {"smiles": "Cc1nc(CC(=O)Nc2cc(Cl)ccc2C)cs1", "activity change, negative = cytotoxicity": "inactive: 5.43%"},
      {"smiles": "COc1cc(C)ccc1OCCSc1nc(-c2cccc(C)c2)nc2cc(=O)[nH]n12", "activity change, negative = cytotoxicity": "inactive: -23.5%"},
      {"smiles": "COc1ccc(N2CCN(S(=O)(=O)CCNC(=O)C3CC(=O)N(c4ccccc4)C3)CC2)cc1", "note": "(stereo unspecified)", "activity change, negative = cytotoxicity": "inactive: 3.31%"},
      {"smiles": "CCCOc1ccc(CN(C(=O)c2cc(=O)c3ccc(C)cc3o2)C2CCS(=O)(=O)C2)cc1", "note": "(stereo unspecified)", "activity change, negative = cytotoxicity": "inactive: -10.5%"},
      {"smiles": "COc1ccc(CCNC(=O)c2cc(C)nc3c2c(C)nn3-c2ccc(C)cc2)cc1OC", "activity change, negative = cytotoxicity": "inactive: 4.47%"},
      {"smiles": "CCN(CC)CCCNC(=O)c1ccc2nc(N3CCCCC3)sc2c1", "activity change, negative = cytotoxicity": "inactive: 3.18%"},
      {"smiles": "CCNC(=O)c1ccc2nc(CCc3ccccc3)oc2c1", "activity change, negative = cytotoxicity": "inactive: 12.1%"},
      {"smiles": "Cc1ccccc1NS(=O)(=O)c1ccc2[nH]cc(C(=O)NC(C)c3ccccc3)c(=O)c2c1", "note": "(stereo unspecified)", "activity change, negative = cytotoxicity": "inactive: -1.75%"},
      {"smiles": "COc1ccccc1C(=O)Nc1nc2nc(-c3ccccc3)cc(=O)n2[nH]1", "activity change, negative = cytotoxicity": "inactive: -1.28%"},
      {"smiles": "CCc1nn2c(=O)cc(COC(=O)c3ccc(NC(=O)c4cccs4)cc3)nc2s1", "activity change, negative = cytotoxicity": "inactive: 4.03%"},
      {"smiles": "Cc1ccc(C)c(CNC(=O)C2CCN(c3nc4ccccc4nc3C(F)(F)F)CC2)c1", "activity change, negative = cytotoxicity": "inactive: 28.6%"},
      {"smiles": "CCOc1ccccc1CNC(=O)Cn1ncn2nc(-c3cccs3)cc2c1=O", "activity change, negative = cytotoxicity": "inactive: -0.145%"},
      {"smiles": "COc1ccc(Nc2nnc(-c3cc4c(ccc5ccccc54)oc3=O)s2)cc1", "activity change, negative = cytotoxicity": "inactive: 12.3%"},
      {"smiles": "COc1ccccc1CCNC(=O)C(=O)NCC(c1cccs1)S(=O)(=O)c1ccc(C)cc1", "note": "(stereo unspecified)", "activity change, negative = cytotoxicity": "inactive: -2.9%"},
      {"smiles": "CC(=O)N1CCCC1c1nc2ccccc2n1Cc1cccc(Cl)c1", "note": "(stereo unspecified)", "activity change, negative = cytotoxicity": "inactive: 3.37%"},
      {"smiles": "CCc1ccc(CNC(=O)COc2cc(=O)n(CC)c3ccccc23)cc1", "activity change, negative = cytotoxicity": "inactive: -15.3%"},
      {"smiles": "COC(=O)c1c(NC(=O)c2nc(SCc3cccc(C)c3)ncc2Cl)sc2c1CCCC2", "activity change, negative = cytotoxicity": "inactive: -2.14%"},
      {"smiles": "COc1ccc(-n2nnc(-c3nc(-c4cccs4)no3)c2N)cc1OC", "activity change, negative = cytotoxicity": "inactive: 3%"},
      {"smiles": "CC1=C(c2ccc(F)cc2)S(=O)(=O)NC1=NCc1ccccc1F", "activity change, negative = cytotoxicity": "inactive: -4.55%"},
      {"smiles": "COc1ccc(-c2nc(C)c(CCNC(=O)C(=O)Nc3ccccc3C#N)s2)cc1OC", "activity change, negative = cytotoxicity": "inactive: 26.9%"},
      {"smiles": "Cc1ccc(-c2noc(-c3ccc(NCc4ccco4)c([N+](=O)[O-])c3)n2)cc1", "activity change, negative = cytotoxicity": "inactive: 14.5%"},
      {"smiles": "COc1cc(NC(=O)CC(c2ccc(C)cc2)N2Cc3ccccc3C2=O)cc(OC)c1", "note": "(stereo unspecified)", "activity change, negative = cytotoxicity": "inactive: 1.23%"},
      {"smiles": "COc1ccc(NS(=O)(=O)c2cc3c(cc2C)NC(=O)CO3)c(OC)c1", "activity change, negative = cytotoxicity": "inactive: 3.98%"},
      {"smiles": "O=C(CSC1=Nc2ccccc2C2=NC(Cc3ccccc3)C(=O)N12)Nc1ccccc1C(F)(F)F", "note": "(stereo unspecified)", "activity change, negative = cytotoxicity": "inactive: -1.61%"},
      {"smiles": "COc1cc(NC(=O)C2CCN(S(=O)(=O)c3ccc4c(c3)oc(=O)n4C)CC2)cc(OC)c1", "activity change, negative = cytotoxicity": "inactive: 3.67%"},
      {"smiles": "Cc1noc(-c2ccc(N3CCC(C)CC3)c([N+](=O)[O-])c2)n1", "activity change, negative = cytotoxicity": "inactive: -4.82%"},
      {"smiles": "CCOc1ccc(CN2C(=O)c3ccccc3Sc3ccc(C(=O)NC)cc32)cc1", "activity change, negative = cytotoxicity": "inactive: -1.76%"},
      {"smiles": "COC(=O)c1ccc2c(c1)N(CC(=O)Nc1cccc(Cl)c1C)C(=O)c1ccccc1S2", "activity change, negative = cytotoxicity": "inactive: -1.69%"},
      {"smiles": "CC(C)NC(=O)Cn1c(=O)nc(-c2ccccc2F)c2cc(Cl)ccc21", "activity change, negative = cytotoxicity": "inactive: 4.48%"},
      {"smiles": "Cc1cn2c(=O)cc(COc3ccccc3NC(=O)c3ccc(C(C)(C)C)cc3)nc2s1", "activity change, negative = cytotoxicity": "inactive: 9.68%"},
      {"smiles": "Cc1cccc(CNC(=O)c2oc3c(c2C)-c2nn(Cc4cccc(Cl)c4)cc2CC3)c1", "activity change, negative = cytotoxicity": "inactive: -2.01%"},
      {"smiles": "CCOc1ccc(NC(=O)Cn2c(=O)n(Cc3nc(-c4ccccc4)no3)c(=O)c3cc4c(cc32)OCO4)cc1", "activity change, negative = cytotoxicity": "inactive: 1.13%"},
      {"smiles": "CC(=O)c1ccc(NC(=O)c2nc(-c3ccccc3)n(-c3ccc(Cl)cc3)n2)cc1", "activity change, negative = cytotoxicity": "inactive: 14.4%"},
      {"smiles": "CC(C)c1cnc2c(c1SCc1cccc(F)c1)c(=O)n(C)c(=O)n2C", "activity change, negative = cytotoxicity": "inactive: 6.9%"},
      {"smiles": "Cc1ccc(-c2nc3nc(C)cc(C)n3c2Nc2ccc3c(c2)OCCO3)cc1", "activity change, negative = cytotoxicity": "inactive: -24.8%"},
      {"smiles": "CC(=O)N1CCc2cc(Br)cc(S(=O)(=O)N3CCC(C)CC3)c21", "activity change, negative = cytotoxicity": "inactive: 9.51%"},
      {"smiles": "Cc1ccc(Cn2ccn(CC(=O)Nc3c(C)cc(C)cc3C)c(=O)c2=O)cc1", "activity change, negative = cytotoxicity": "inactive: -0.499%"},
      {"smiles": "CCOC(=O)c1cc2c(=O)n3ccccc3nc2n(CCOC)c1=NC(=O)C(C)(C)Oc1ccc(Cl)cc1", "activity change, negative = cytotoxicity": "inactive: 9.31%"},
      {"smiles": "Cc1nc2nc(NC(=O)C(C)(C)C)[nH]n2c(=O)c1Cc1ccccc1", "activity change, negative = cytotoxicity": "inactive: 3.25%"}
    ]}
  ]
}
